{
  "source": "PubChem BioAssay AID504648",
  "about": "(National Center for Advancing Translational Sciences (NCATS), 2011)",
  "note": "Out of some 390,000 compounds screened, about 610 (0.16%) were called active. Not shown: some 4% with an inconclusive outcome. Calls follow the shape of the dose curve; as a rule, active = well fitted inhibition curve with a large enough effect; inconclusive = small, poorly fitted or top-dose-only effect, or effect the other way, or another doubt; inactive = no such curve, though single readings can be large or run the other way. Only a part is listed here, and it is no random draw. % is scaled to controls: 0 for no effect and ±100 for the full control effect; potency is read from the fitted curve at half-maximal effect.",
  "data": [
    {"experiment": "Nrf2 qHTS screen for inhibitors: counterscreen for cytotoxicity", "details": "A549 ARE-Fluc cells, CellTiter-Fluor viability, 18-24 h; series mostly up to 46 µM; activity change, negative = cytotoxicity: at the top concentration", "procedure,_shortened": "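A549 ARE_Fluc cells in 5% FBS OPTI-MEM were exposed to compounds in concentration-response for 18-24 h at 37 deg C. Viability was read by CellTiter-Fluor fluorescence (Ex 405/Em 525) after 30 min, before the luciferase read.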", "values": [
      {"smiles": "CN(C)c1ccc(C=c2c3ccccc3n3c2c2c([n+]3C)CCCC2)cc1", "Potency": "active: 20.6 µM"},
      {"smiles": "CC(C)NCC(O)COc1ccc(CC(N)=O)cc1", "note": "(stereo unspecified)", "activity change, negative = cytotoxicity": "inactive: -5.39%"},
      {"smiles": "Cc1nc([N+](=O)[O-])c(Br)n1CC(=O)c1ccc(Br)cc1", "Potency": "active: 16.4 µM"},
      {"smiles": "Cc1cc(F)ccc1S(=O)(=O)Nc1ccccc1C(=O)Nc1ccccc1-c1nc2ccccc2[nH]1", "Potency": "active: 23.1 µM"},
      {"smiles": "COc1cc(/C=N/NC(=O)c2ccncc2)ccc1O", "activity change, negative = cytotoxicity": "inactive: -2.68%"},
      {"smiles": "O=C1N[C@@H](Cc2ccccc2)C(=O)N2[C@H]1C[C@]1(Br)c3ccccc3N(S(=O)(=O)c3ccc(F)cc3)[C@H]21", "activity change, negative = cytotoxicity": "inactive: -2.9%"},
      {"smiles": "COc1cccc2c1C(=O)c1c(O)c3c(c(O)c1C2=O)C[C@@](O)(C(=O)CO)C[C@@H]3OC1CC(N)C(O)C(C)O1", "note": "(stereo partly specified)", "Potency": "active: 8.2 µM"},
      {"smiles": "CCOc1ccccc1-n1c(C)nc2cc(C(=O)O)ccc21", "activity change, negative = cytotoxicity": "inactive: -0.804%"},
      {"smiles": "COc1cc2nc(Nc3ccc(C)c(C)c3)nc(N)c2cc1OC", "activity change, negative = cytotoxicity": "inactive: 0.586%"},
      {"smiles": "Cc1ccc(-c2c(C(=O)N(C)Cc3ccccc3)oc(=O)c3ccccc23)cc1", "activity change, negative = cytotoxicity": "inactive: 1.43%"},
      {"smiles": "COc1ccc([C@H]2/C=C\\CN(C(=O)c3ccc(C)cc3)[C@@H](C)C(=O)N2Cc2ccc(F)cc2)cc1", "activity change, negative = cytotoxicity": "inactive: -12.6%"},
      {"smiles": "CCCCN(CCCC)CCNC(=O)c1cn(CC)c2ccc(S(=O)(=O)N(C)C3CCCCC3)cc2c1=O", "activity change, negative = cytotoxicity": "inactive: -1.63%"},
      {"smiles": "CCC(=O)NC(c1ccco1)c1cc(Cl)c2cccnc2c1O", "note": "(stereo unspecified)", "activity change, negative = cytotoxicity": "inactive: -12.8%"},
      {"smiles": "C#Cc1ccc([C@@H]2C=C(C(=O)NCc3nc4ccccc4[nH]3)O[C@H](OCC)[C@H]2CCCO)cc1", "activity change, negative = cytotoxicity": "inactive: 0.505%"},
      {"smiles": "N[C@@H](Cc1cc(I)c(Oc2ccc(O)c(I)c2)c(I)c1)C(=O)O", "activity change, negative = cytotoxicity": "inactive: -13.5%"},
      {"smiles": "CCN1/C(=C\\c2ccc3ccccc3[n+]2CC)Sc2cc(C)ccc21", "Potency": "active: 23.1 µM"},
      {"smiles": "CCC1CN(C(=O)NCc2ccc(C)cc2)c2cc(C)ccc2O1", "note": "(stereo unspecified)", "activity change, negative = cytotoxicity": "inactive: 2.18%"},
      {"smiles": "C=CC[C@@H](CC(=O)N[C@H](CO)Cc1ccccc1)C(=O)N[C@H](C)COC(=O)[C@@H](CC=C)Cc1ccc(F)cc1", "activity change, negative = cytotoxicity": "inactive: -4.8%"},
      {"smiles": "COCCOC(=O)c1c(C)oc2ccc(O)c(CN3CCC(C)CC3)c12", "note": "(tested in a mixture with another compound)", "activity change, negative = cytotoxicity": "inactive: -13.2%"},
      {"smiles": "CC(C)C[C@H](NC(=O)c1[nH]cnc1C(=O)N[C@H](C)c1ccccc1)C(=O)OCc1ccccc1", "activity change, negative = cytotoxicity": "inactive: -7.25%"},
      {"smiles": "COc1ccc(-n2nc3c(N4CCC(C(=O)NCc5ccccc5C)CC4)nnc(C)c3c2C)cc1", "activity change, negative = cytotoxicity": "inactive: -0.0672%"},
      {"smiles": "O=C(C[C@H]1C/C=C\\CC[C@@H](Cc2ccc(F)cc2)C(=O)O[C@@H](c2ccccc2)CNC1=O)N[C@H](CO)Cc1ccccc1", "activity change, negative = cytotoxicity": "inactive: -4.69%"},
      {"smiles": "COc1ccc(OC)c2nc3c(C(=O)NCCN(C)C)cccc3nc12", "Potency": "active: 16.4 µM"},
      {"smiles": "Cc1oc2c(c1C(=O)N1CCOCC1)C(=O)c1ccccc1C2=O", "Potency": "active: 16.4 µM"},
      {"smiles": "N=c1c2c(ncn1-c1ccccc1)Oc1ccc3ccccc3c1C2c1ccc2c(c1)OCO2", "note": "(stereo unspecified)", "Potency": "active: 14.6 µM"},
      {"smiles": "CN1CCN(CCC=C2c3ccccc3Sc3ccc(S(=O)(=O)N(C)C)cc32)CC1", "activity change, negative = cytotoxicity": "inactive: -14.6%"},
      {"smiles": "O=C(C1=C[C@@H](c2ccc(C(F)(F)F)cc2)C[C@@H](OCc2ccc(CO)cc2)O1)N1CCN(Cc2ccc3c(c2)OCO3)CC1", "activity change, negative = cytotoxicity": "inactive: -21.6%"},
      {"smiles": "CC1CCN(CC(=O)N2CCCc3c2c(=O)oc2ccc(OCc4ccccc4)cc32)CC1", "activity change, negative = cytotoxicity": "inactive: -10.4%"},
      {"smiles": "Cc1ccc(CN2C(=O)c3ccccc3Sc3ccc(C(=O)NCCCN4CCOCC4)cc32)cc1", "activity change, negative = cytotoxicity": "inactive: -1.28%"},
      {"smiles": "CCCCCCN1C=C/C(=C\\C=C(C#N)C#N)c2ccccc21", "Potency": "active: 6.51 µM"},
      {"smiles": "Cc1ccc(SC[C@H](CC(C)C)N2CCN(CCc3ccccc3)CCC2=O)cc1", "activity change, negative = cytotoxicity": "inactive: -16.9%"},
      {"smiles": "C=CC[C@@H](CC(=O)N[C@H](CO)Cc1ccccc1)C(=O)N[C@@H](COC(=O)[C@@H](CC=C)CC(=O)OC(C)(C)C)Cc1c[nH]c2ccccc12", "activity change, negative = cytotoxicity": "inactive: -18.9%"},
      {"smiles": "N#C/C(=C\\c1ccc(-c2ccccc2C(=O)O)o1)c1nc2ccccc2[nH]1", "activity change, negative = cytotoxicity": "inactive: -27%"},
      {"smiles": "Cc1c(NC(=O)/C(C#N)=C/c2ccc(-c3ccc(Cl)cc3)o2)c(=O)n(-c2ccccc2)n1C", "Potency": "active: 23.1 µM"},
      {"smiles": "COc1cccc2c1cc1c(=O)n(CC(=O)NCCCN3CCN(C)CC3)nc(C)n12", "activity change, negative = cytotoxicity": "inactive: 7.97%"},
      {"smiles": "CC(=O)c1ccc(N2CCN(S(=O)(=O)c3ccc(-c4cnc(C5CC5)o4)cc3)CC2)cc1", "activity change, negative = cytotoxicity": "inactive: -19.8%"},
      {"smiles": "C#Cc1ccc([C@H]2C=C(C(=O)N3CCN(Cc4ccc5c(c4)OCO5)CC3)O[C@@H](OCC)[C@@H]2CCCO)cc1", "activity change, negative = cytotoxicity": "inactive: -1.78%"},
      {"smiles": "COc1cc(C2C3=C(COC3=O)Oc3cc4c(cc32)OCO4)cc(OC)c1OC", "note": "(stereo unspecified)", "activity change, negative = cytotoxicity": "inactive: -4.3%"},
      {"smiles": "O=C1Nc2ccc(Br)cc2/C1=N\\N=C\\C1=C(N2CCOCC2)C(=C/c2ccccc2)/CC1", "activity change, negative = cytotoxicity": "inactive: -13.5%"},
      {"smiles": "O=C1NC[C@@H](c2ccccc2)OC(=O)[C@@H](Cc2ccc(F)cc2)C/C=C\\C[C@@H]1CC(=O)N(CCO)Cc1ccccc1", "activity change, negative = cytotoxicity": "inactive: -29.4%"},
      {"smiles": "C=CCC[C@H](Cc1ccc(F)cc1)C(=O)OC[C@@H](C)NC(=O)[C@H](CC=C)CC(=O)N(CCO)Cc1ccccc1", "activity change, negative = cytotoxicity": "inactive: -2.86%"}
    ]}
  ]
}
